Results as given in article PMC5700166.
The entries are a selection whose mix differs from that of the whole data set. The list includes weakly bound sequences.

Target: T1, GST-Nv-NF-kB (Cys allele) (UniProt E5G601)
T1 sequence: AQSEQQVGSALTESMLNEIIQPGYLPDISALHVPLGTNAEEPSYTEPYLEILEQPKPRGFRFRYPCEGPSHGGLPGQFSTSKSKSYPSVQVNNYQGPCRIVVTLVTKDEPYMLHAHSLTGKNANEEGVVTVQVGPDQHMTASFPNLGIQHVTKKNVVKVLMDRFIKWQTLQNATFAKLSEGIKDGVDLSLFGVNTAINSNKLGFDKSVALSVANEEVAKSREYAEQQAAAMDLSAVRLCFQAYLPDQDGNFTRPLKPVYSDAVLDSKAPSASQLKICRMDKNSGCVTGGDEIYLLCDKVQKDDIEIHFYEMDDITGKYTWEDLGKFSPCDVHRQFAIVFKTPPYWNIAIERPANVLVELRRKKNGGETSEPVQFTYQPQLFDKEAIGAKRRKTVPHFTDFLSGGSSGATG
Experiment: protein-binding microarray (PBM)
Conditions: PBM: ~300 nM protein, 6 mM HEPES pH 7.8, 80 mM KCl, 0.5 mM EDTA, 0.5 mM EGTA, 6% glycerol, 35 ng/ul poly-dIdC, 1% milk, 1 h, room temperature; Ap Aiptasia and Nv Nematostella (sea anemones) / Co Capsaspora / Aq Amphimedon (sponge) / Dm Drosophila / Hu human; RHD is the Rel homology domain; high values mean tight binding; most listed sequences are background and not binding sites; double strand, one strand shown

Row | Sequence | binding signal [z-score]
1 | CCGATTAACATCACAAGTTTCCCTGATGTTAATCGGGTCTTGATTCGCTTGACGCTGCTG | 5.33
2 | CCGATTAACATCAGAATTCCCCATGATGTTAATCGGGTCTTGATTCGCTTGACGCTGCTG | 10.3
3 | CCGATTAACATCAAGCAATTCCCTGATGTTAATCGGGTCTTGATTCGCTTGACGCTGCTG | 4.28
4 | CCGATTAACATCAACTTTCCCCCTGATGTTAATCGGGTCTTGATTCGCTTGACGCTGCTG | 7.45
5 | CCGATTAACATCAGGGTGGGAAATGATGTTAATCGGGTCTTGATTCGCTTGACGCTGCTG | 3.1
6 | CCGATTAACATCAAGTTTTTCCCTGATGTTAATCGGGTCTTGATTCGCTTGACGCTGCTG | 5.43
7 | CCGATTAACATCAAATTCCCACATGATGTTAATCGGGTCTTGATTCGCTTGACGCTGCTG | 3.53
8 | CCGATTAACATCAGGGGATTGCATGATGTTAATCGGGTCTTGATTCGCTTGACGCTGCTG | 5.89
9 | CCGATTAACATCAGGAGATCCCATGATGTTAATCGGGTCTTGATTCGCTTGACGCTGCTG | 0.935
10 | CCGATTAACATCAGAACCCCCCCTGATGTTAATCGGGTCTTGATTCGCTTGACGCTGCTG | 4.85
11 | CCGATTAACATCAGGGAGCCCCCTGATGTTAATCGGGTCTTGATTCGCTTGACGCTGCTG | 4.79
12 | CCGATTAACATCAAGGAAAACCCTGATGTTAATCGGGTCTTGATTCGCTTGACGCTGCTG | 2.33
13 | CCGATTAACATCAGGGAATACACTGATGTTAATCGGGTCTTGATTCGCTTGACGCTGCTG | 2.43
14 | CCGATTAACATCAAACAATTCCCTGATGTTAATCGGGTCTTGATTCGCTTGACGCTGCTG | 5.26
